Laboratory results: ChEMBL document CHEMBL4888484, “Replenishing the malaria drug discovery pipeline: Screening and hit evaluation of the MMV Hit Generation Library 1 (HGL1) against asexual blood stage Plasmodium falciparum ,using a nano luciferase reporter read-out” (2022)
The whole screen tested about 150,000 compounds, of which about 540 (0.36%) showed an effect of 50% or more. This is one part of the list.

Each compound was assayed on Plasmodium falciparum (assay: Primary screen in NF54 nanoGlo assay, in single point, at 2uM, 72h; a lower Z score goes with more inhibition). Conditions: timepoint 72 hour.
Format: functional, Erythrocyte

SMILES | % Inhibition | Z score
OCC1(Nc2nccc(C(F)(F)F)n2)CC1 | 14% | -1.57
Cc1nc(-c2ccc(N)nc2)c2ccccc2n1 | -17% | 1.57
Brc1ccc(-c2cn3c4ccccc4nc3n2CCN2CCCCC2)cc1 | -15% | 2.27
COCCN(C)CC(=O)NCCn1cc(C)cn1 | -7% | 1.32
CC(C)(O)Cn1nc(COc2cccc(F)c2)nc1-c1ccco1 | -7% | 0.89
Cc1csc(CNC(=O)NC2CCCCC2)n1 | 0% | 0.01
C[C@@]1(C(=O)NC2CCCCCCC2)Cn2c(ccc2-c2ccccc2)C(=O)N1CCc1ccccc1 | -17% | 2.06
Cc1cc(-c2cc(C(=O)N[C@@H](C(=O)N(C)C)c3ccccc3)c3c(C)noc3n2)c(C)o1 | -1% | 0.15
CC1OCCC1C(=O)NCCCNc1cccc(F)c1 (configuration not stated) | -18% | 2.08
Nc1nc(CCNC(=O)[C@H]2CC(=O)OC23CCCC3)cs1 | -6% | 1.26
CCOc1cc2c(cc1OCC)[C@@H]1CC(=O)N(c3ccccc3C)C(=O)N1CC2 | 9% | -1.41
COc1ccc(Br)cc1C1NC(=O)N(CC(=O)N2CCCC(C)C2)C1=O (configuration not stated) | -2% | 0.3
COc1ccc(N2C(=O)NC(CC(=O)NC3CCc4cc(OC)c(OC)cc43)C2=O)cc1 (configuration not stated) | -4% | 0.45
O=C(Nc1cccc(F)c1)c1c(O)c2cnn(Cc3ccccc3)c2[nH]c1=O | -13% | 1.74
COc1nc(C)cc(NC2CC[S+]([O-])C2)n1 (configuration not stated) | -1% | 0.17
CC1CCCCC1NC(=O)CN1C(=O)NC2(CCCCCCC2)C1=O (configuration not stated) | -8% | 1.46
CC(=O)N1CC[C@]2(CO)CN(C(=O)c3ccc(F)cc3Cl)C[C@@H]2C1 | -7% | 1.04
Cc1ccc(NC(=O)C(=O)N(CCC#N)Cc2cccnc2)cn1 | -8% | 1.59
COc1cccc(CC(=O)Nc2ccc3c(c2)CN(Cc2ccccc2F)C(=O)[C@H](C)O3)c1 | 6% | -0.7
Cc1nc(Oc2ccc(-n3cccn3)cc2)ccc1C#N | -12% | 1.45
CCc1ccc(NC(=O)Cc2c(C)nc3nc(-c4ccccc4C)nn3c2C)cc1 | 34% | -4.53

SMILES | % Inhibition | Z score
CCC(CC)C(=O)Nc1cc(C2CC2)nn1-c1nc(-c2ccccc2)cc(=O)[nH]1 | 69% | -9.47
CCN1CCC[C@H](C(=O)NCc2cnc3c(c2)CCC3)C1 | 0% | 0.03
COc1ccc2occ(C(=O)N3C[C@@H]4[C@@H](CF)[C@@H]4C3)c2c1 | -6% | 0.79
Cc1ncoc1C(=O)N1CCC([C@]2(CCC(C)C)NC(=O)N(Cc3ccccn3)C2=O)CC1 | -7% | 0.86
COc1ccc(CC(=O)NCCOc2ccc(-c3ccc(OC)cc3)nn2)cc1 | -4% | 0.78
CC[C@H](C)[C@H](NC(=O)c1ccc(Br)c(F)c1)C(=O)O | 36% | -5.2
COc1ccc2cc(-c3n[nH]cc3CN(C)CC3CCOCC3)ccc2c1 | 5% | -0.74
Cc1cc(C(=O)N(C)c2cccc3ncccc23)n(C)n1 | -18% | 3.13
CC(C)C[C@]1(CO)CCCN1C(=O)c1ncc(F)cc1F | 0% | -0.06
CCCn1nc(CC(N)=O)nc1C1CCN(Cc2ccco2)CC1 | -2% | 0.17
CCn1ccc(C(=O)N2CCCCN(C)C(=O)[C@H](C)NC(=O)COc3cc(ccc3OC)CCC(=O)NCCC2)cc1=O | -10% | 1.87
CCC(CC)C(=O)N(Cc1cc(NC(=O)C(C)C)ccc1N(C)C)[C@@H](C)C(C)C | 8% | -1.02
CC1(C)CC(=O)C2(CC(=O)N3CCc4ccccc4[C@@H]32)C(=O)C1 | -4% | 0.51
O=C(CC(F)(F)F)NC(c1ccc(F)cc1)[C@H]1C[C@@H](O)C1 (some centres not stated) | -5% | 0.91
CCn1nc(C)c(CNCc2c(C)nc3ccccn23)c1C | -7% | 0.91
O=C(Nc1ccc2c(c1)OCCCO2)N1CCC[C@H]1c1cccs1 | 0% | 0
c1nc(N2CCCC2)cc(N2CCC(c3noc(C4CC4)n3)CC2)n1 | -18% | 1.86
CCOc1ccc(C(O)(C2CCCCC2)C(CN2CCOCC2)c2ccc(Cl)cc2)cc1 (configuration not stated) | 2% | -0.29
COC1(OC)CC2(CN(Cc3cccc4cnccc34)[C@H]2C(C)C)C1 | -5% | 0.74
Cc1ccc2c(c1)C(=O)NC1(CCN(C(=O)c3ccc(F)c(Cl)c3)CC1)N2C | 6% | -0.79
